In publication PMC4336329 (PLoS ONE, 2015):
In all, about 310,000 compounds went through this assay and about 14,000 (4.5%) showed an effect of 50% or more. The effect is printed as a negative number. This is one part of the list.

Molecular target: human ether-à-go-go-related gene (hERG) potassium channel (human, UniProt Q12809)
Test: primary screen, population patch clamp on CHO cells stably expressing hERG
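Note: peak tail current of the secondary pulse compared with the same well before compound.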

Sequence of human ether-à-go-go-related gene (hERG) potassium channel (Q12809 whole entry, looked up): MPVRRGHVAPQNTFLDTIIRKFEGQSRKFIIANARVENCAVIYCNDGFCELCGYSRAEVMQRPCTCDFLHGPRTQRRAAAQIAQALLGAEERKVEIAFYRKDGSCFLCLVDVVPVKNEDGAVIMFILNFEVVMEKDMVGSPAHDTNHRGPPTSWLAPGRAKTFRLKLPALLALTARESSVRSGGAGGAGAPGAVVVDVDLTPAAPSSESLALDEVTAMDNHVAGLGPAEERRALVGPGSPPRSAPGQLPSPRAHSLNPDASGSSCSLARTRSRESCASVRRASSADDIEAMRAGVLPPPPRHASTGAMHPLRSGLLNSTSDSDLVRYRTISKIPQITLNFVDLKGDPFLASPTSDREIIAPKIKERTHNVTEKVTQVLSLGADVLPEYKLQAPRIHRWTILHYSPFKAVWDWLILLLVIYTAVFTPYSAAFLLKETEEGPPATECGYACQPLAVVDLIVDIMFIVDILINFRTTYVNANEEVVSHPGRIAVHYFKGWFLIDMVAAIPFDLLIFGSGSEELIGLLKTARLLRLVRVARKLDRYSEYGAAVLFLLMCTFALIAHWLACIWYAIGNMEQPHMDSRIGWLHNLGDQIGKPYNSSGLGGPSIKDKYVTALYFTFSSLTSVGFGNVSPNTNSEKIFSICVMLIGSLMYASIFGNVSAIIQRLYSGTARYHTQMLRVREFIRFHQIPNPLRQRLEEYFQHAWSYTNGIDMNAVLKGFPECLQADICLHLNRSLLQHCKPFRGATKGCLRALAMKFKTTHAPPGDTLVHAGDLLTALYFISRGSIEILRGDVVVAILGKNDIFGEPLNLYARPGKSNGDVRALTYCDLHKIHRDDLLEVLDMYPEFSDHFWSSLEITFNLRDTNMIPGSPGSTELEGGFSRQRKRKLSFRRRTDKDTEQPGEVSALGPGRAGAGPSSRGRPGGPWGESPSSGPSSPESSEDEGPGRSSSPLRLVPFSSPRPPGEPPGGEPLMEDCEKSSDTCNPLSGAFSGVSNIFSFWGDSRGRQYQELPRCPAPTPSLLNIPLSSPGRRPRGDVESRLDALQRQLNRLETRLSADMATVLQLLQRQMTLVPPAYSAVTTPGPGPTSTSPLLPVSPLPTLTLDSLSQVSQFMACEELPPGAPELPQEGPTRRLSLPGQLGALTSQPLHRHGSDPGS

SMILES | hERG current change (%, negative = inhibition) at 10uM
Cc1nn(-c2ccccc2)c(C)c1NC(=O)COc1ccc(F)cc1Cl | -35.8%
COc1cccc(Nc2nc(CC(C)=O)ns2)c1 | 21.2%
CCOC(=O)c1ccc(-c2ccc(C(=O)Nc3cccnc3)o2)cc1 | 11%
CC1=C(n2nnc([N+](=O)[O-])n2)C(c2cccnc2)C(C#N)=C(N)O1 (stereo not shown) | -5.58%
Cc1ccc(Nc2c(-c3ccccn3)nc3cccc(C)n23)cc1 | 10.1%
CC1C(=O)N(Cc2ccccc2F)c2ccccc2N1C(=O)c1c(F)cccc1F (stereo not shown) | -6.04%
Cc1cc(Oc2ccc(=O)n(C)n2)nc(SCC(N)=O)n1 | 8.09%
CC(=O)Nc1ccc(NC(=O)c2ccccc2Nc2ccccc2)cc1 | 12.7%
Cc1ccc(S(=O)(=O)N(CC(=O)NN=C2CCN(C)CC2)c2ccc(F)cc2)cc1 | 3.99%
CCOC(=O)N1CCN(C(=O)Cc2ccsc2)CC1 | 3.68%
CCc1nnc(NC(=O)Cc2ccc(OC)cc2)s1 | -4.6%
COc1cc(NC(=O)c2ccc(COCC(F)(F)F)cc2)cc(OC)c1OC | 1.25%
Cc1nn(-c2nnc(C)c(=O)[nH]2)c(C)c1SCC(=O)Nc1ccc(F)cc1 | 17.6%
C[C@]12C(=O)N(c3ccc(C(F)(F)F)cc3)C(=O)N1[C@@H]1c3ccccc3OC[C@@H]1[C@H]2c1ccccc1 | 10.1%
c1cnc(N2CCN(c3cnccn3)CC2)nc1 | 3.42%
Cc1c(Cl)cccc1N(CC(=O)NC(C)c1ccccc1)S(C)(=O)=O (stereo not shown) | -3.41%
Cc1nc2nc[nH]n2c(=O)c1CCC(C)C | 4.34%
COc1ccccc1NC(=O)CN1C(=O)NC(CC(C)C)C1=O (stereo not shown) | 4.37%
CN(C)c1cnn(-c2ccccc2)c(=O)c1Cl | 7.34%
CC1CCN(C(=O)CCCOc2ccc(Cl)cc2)CC1 | -27.7%
COC(=O)c1ccccc1NC(=S)NC(C)=O | 32.6%
CCN(CC)C(=O)c1ccc2c(c1)nnn2C | 12.5%
Cn1c(SCc2ccccn2)nnc1-c1ccncc1 | -14.5%

SMILES | hERG current change (%, negative = inhibition) at 10uM
Cc1cc(C)c(S(=O)(=O)N(CC(=O)NCc2cccnc2)C2CCCCC2)c(C)c1 | -37.4%
CNC(=O)c1cccc(NC(=O)CCCNC(=O)c2ccc(Cl)cc2)c1 | 9.43%
CN1/C(=C\C(=S)NC(=O)c2cccc(Br)c2)C(C)(C)c2ccccc21 | -7.85%
Cc1ccc(CNC(=O)CCc2cn(C)c3ccccc23)cc1 | 7.06%
Cc1ccc(Nc2cc(=O)[nH]c(=O)[nH]2)c(C)c1 | 14.7%
CC1(C)NC(=O)N(CN2C(=O)NC(C)(C)C2=O)C1=O | 7.67%
CCOC(=O)c1cccc(NC(=O)CSc2nnnn2CC)c1 | -10.2%
CCN(CC)CCCn1c2c(c(SCC(=O)Nc3ccc(OC(F)(F)F)cc3)nc1=O)CCC2 | -67.7%
C=CCn1c(SCC(=O)Nc2nnc(CC)s2)nnc1-c1ccco1 | -4.33%
CCC(c1nnnn1Cc1ccc(F)cc1)N(CCCO)Cc1cc2cc3c(cc2[nH]c1=O)OCO3 (stereo not shown) | -17.5%
C=CCOc1ccc(/C=C/C(=O)OC(C)C(=O)Nc2ccc(NC(C)=O)cc2)cc1 (stereo not shown) | 4.6%
Cc1cccc(Nc2nc(OCC#N)nc(N(C)C)n2)c1 | 13.7%
CC(=O)NC1C(=O)Nc2c(C)cc(C)cc21 (stereo not shown) | -4.56%
O=C(CN(C(=O)CCC(=O)Nc1nccs1)c1ccc(F)c(Cl)c1)NCC1CCCO1 (stereo not shown) | 15.4%
Cc1ccc(-n2nc3c(=O)n(CCCC(=O)NCc4ccco4)nc(C)c3c2C)cc1 | -8.62%
COCCCN(C(=S)Nc1cc(Cl)cc(Cl)c1)C(C)c1ccncc1 (stereo not shown) | -70.6%
CC1CC(C)CN(c2ncnc3c2cnn3C)C1 (stereo not shown) | -69.8%
O=C(Nc1ccccc1)Nc1ccc(C(=O)N2CCOCC2)cc1 | 21.6%
Cc1noc(C)c1COc1ccccc1C(=O)NNC(=O)c1ccccc1 | -9.18%
Cc1c(NS(=O)(=O)c2ccc(Cl)c(C(=O)OC(C)C(=O)NCc3ccco3)c2)c(=O)n(-c2ccccc2)n1C (stereo not shown) | -77.5%
CC1CCCC(C)N1C(=O)Cn1c(=O)sc2ccccc21 (stereo not shown) | 0.375%
Cc1cc(NC(=O)Nc2ccc(C)c(C)c2)no1 | 11.3%
CCC(C)C(NC(=O)CCCNC(=O)CCC(=O)OC1O[C@H]2OC3(C)CC[C@H]4[C@H](C)CCC(C1C)C24OO3)C(=O)O (stereo partly shown) | 4.12%

SMILES | hERG current change (%, negative = inhibition) at 10uM
O=C1CCc2cc(S(=O)(=O)N3CCCC3C(=O)N3CCN(c4ccccc4F)CC3)ccc2N1 (stereo not shown) | -14.5%
O=C(Nc1nccs1)C1C2CC3OC(=O)C1C3C2 (stereo not shown) | 12.5%
c1ccc(Sc2ccccn2)cc1 | 9.32%
c1ccc(-c2ccccc2-c2nc(-c3ccncc3)no2)cc1 | 1.37%
NC(=O)c1ccccc1OC1CCC1 | 19%
Cn1nc(C(C)(C)C)cc1C(=O)NCc1ccc2c(c1)OCO2 | 11.3%
Cc1ccc(S(=O)(=O)NC(=O)Nc2ccc(N(C)C)cc2)cc1 | 9.23%
O=C(NCCc1ccccc1)C(=O)NCC1OCCCN1S(=O)(=O)c1cc(F)ccc1F (stereo not shown) | -10.8%
Cc1ccccc1C1c2[nH]c3ccccc3c2CCN1Cc1cccn1-c1ncccn1 (stereo not shown) | -46.3%
Nc1ccc(S(=O)(=O)N2CCCC2)cc1 | -2.88%
COc1ccc(CN2CCc3c([nH]c4ccccc34)C2)cc1Br | -45.9%
O=C(CC1CCCC1)NCCS(=O)(=O)N1CCN(c2ccc(F)cc2)CC1 | -15.1%
NC(=O)c1cc(Cc2ccccc2)sc1NC(=O)c1ccco1 | -13.6%
Nc1nc(-c2ccc(-c3ccccc3)cc2)cs1 | 23.2%
COCc1cc(=O)[nH]c(SCCS(=O)(=O)c2ccc(C)cc2)n1 | 11.7%
CCN(CCNC(=O)Cn1cc2c(n1)CCCC2)c1ccccc1 | -6.15%
COc1ccc(C(=O)Nc2cccc3nc(C)ccc23)cc1OC | 10.2%
Cc1cc(C)cc(NCc2cc3c(cc2[N+](=O)[O-])OCO3)c1 | -14.6%
O=C(Nc1ccc2c(c1)OCCO2)c1cc(-c2ccccc2)nc2ccccc12 | 9.23%
C/C=C(\C)c1nnc(NC(=O)C(C)C)s1 | 0.695%
O=C(/C=C1\SC(=O)N(CC(=O)Nc2ccc(Cl)cc2)C1=O)Nc1ccc(F)cc1 | 7.52%
Cc1ccccc1N1CCN(CCCN2C(=O)CC(=C(c3ccccc3)c3ccccc3)C2=O)CC1 | -35.7%
COc1ccc([N+](=O)[O-])cc1NCc1cccc([N+](=O)[O-])c1 | -62.6%

SMILES | hERG current change (%, negative = inhibition) at 10uM
O=C(Cn1ncc2c([nH]c3ccccc32)c1=O)Nc1ccc(F)cc1F | 15.3%
Cc1cc(C)n(CC(=O)NNC(=O)CC(C)c2ccccc2)n1 (stereo not shown) | 7%
COCCN(Cc1cccs1)S(=O)(=O)c1ccc(-c2ccc(=O)[nH]n2)s1 | -46.8%
CC1(C)NC(=O)NC2(C)NC(=O)NC(C)(C)C12 (stereo not shown) | 3.62%
O=C1CN2C(=Nc3ccc(Cl)cc3C2c2ccccc2)CN1 (stereo not shown) | -12.6%
CC(C)N(Cc1nc(-c2ccccc2)no1)C(=O)c1ccc(Cl)cc1 | -35.1%
Nc1nonc1C(=O)NCCN=Cc1ccccc1O | 17.3%
Clc1ccc(-c2ccccc2)cn1 | -3.24%
CC(/C=C/C=C/c1ccccc1)=N/NC(=O)CNc1ccccc1C | 18.1%
CC(C)(C)SC(C(=O)N1CCOCC1)c1ccc(Br)cc1 (stereo not shown) | -7.39%
O=C(Nc1ccnn1C1CCN(C(=O)Cc2cccc(Cl)c2)CC1)C1CC1 | -7.34%
CCOC(=O)N1CCC(N2Cc3cccc(C(=O)Nc4ccc(S(=O)(=O)N(CC)CC)cc4)c3C2=O)CC1 | 16.3%
CCOC(=O)c1cc(C)sc1NC(=O)CN1CCN(C(=O)C2CCCO2)CC1 (stereo not shown) | -31%
CCCCOc1ccc(C(=O)N/C(=C/C=C/c2ccccc2)C(=O)NC)cc1 | -75.2%
CCc1nc(SCC(=O)Nc2nc3c(s2)CCCC3)c2ccccc2n1 | -11.3%
CS(=O)(=O)N1CCCC(C(=O)NCCCN2CCOCC2)C1 (stereo not shown) | -3.43%
COc1ccccc1C1=NC(c2ccccc2)CN1c1ccccc1 (stereo not shown) | 18.4%
COc1cc2c(cc1OC)CN(CC(=O)Nc1ccccc1C#N)CC2 | -11.5%
COc1ccccc1OCCNC(=O)c1cccc(S(=O)(=O)N2CCN(C)CC2)c1 | 5.31%
CC(C)CNS(=O)(=O)c1ccc(CCC(=O)Nc2ccc3c(c2)OCCO3)cc1 | 12.1%
Cc1nc(-c2coc3cc(O)c(C)cc3c2=O)cs1 | 8.94%
O=C(N/N=C/c1cn(-c2ccccc2)nc1-c1cccnc1)c1cccnc1 | -50.3%
